Source: ChEMBL document CHEMBL1157539, “Thousands of chemical starting points for antimalarial lead identification” (Nature, 2010)
In all, about 13,000 compounds were measured (“IFI”: median about 4, highest 2% from about 17 on). Some of the results follow.

test: GSK_TCMDC: Inhibition Frequency Index (IFI). The number of non-kinase HTS assays where a compound showed > 50 % inhibition, expressed as a percentage of the number of such assays in which the compound was tested (-0 is zero); type: functional

Structure (SMILES) | IFI [%]
CN1CCC(NCc2cccc(-c3ccc(S(=O)(=O)NCc4ccccc4)cc3)c2)CC1 | 8.7
Cc1cc(=O)c(-c2ccc(OCCSc3ccc(C(F)(F)F)cn3)cc2)c(C)[nH]1 | 4.55
COc1cccc(C(=O)NC(c2ccccc2OC)c2cc(Cl)c3cccnc3c2O)c1 (configuration not stated) | 3.45
OCC1CCN(Cc2cccc(-c3ccc(-c4nc5cc(F)ccc5[nH]4)cc3)c2)CC1 | -0
COc1cc2nc(N3CCC(CNC(=O)c4ccc(-c5ccc(C(=O)N(C)C)cc5OCCN(C)C)cc4)CC3)nc(N)c2cc1OC | -0
Cc1cccc2nc(-c3ccc(-c4cccc(NC(=O)c5cncn5C)c4)s3)[nH]c12 | 3.6
CC(C)c1cccc(OCC2CCN(c3ccc(C(=O)Nc4ccccc4)cn3)CC2)c1 | 1.96
Cc1cc(-c2ccc(CNCc3ccsc3)cc2)ccc1S(=O)(=O)NCCN1CCCC1 | 15.4
CS(=O)(=O)CCNc1cc(N2CCc3ncnc(Nc4ccc(OCc5cccc(F)c5)c(Cl)c4)c3C2)ncn1 | 4.44
COc1ccc2[nH]c(C)cc(=NN=Cc3ccc(Cl)cc3)c2c1 | 6.11
COc1ccc2nccc([C@@H](O)CN3CCC(NC(=O)c4cccc(C(=O)c5ccccc5)c4)CC3)c2c1 | 3.6
CC(C)C(=O)NC(NC(=S)Nc1ccc(Br)cc1)C(Cl)(Cl)Cl (configuration not stated) | 1.56
Cc1cc2nc(-c3ccc(C(=O)NCCCc4ccccc4)cc3)[nH]c2cc1C | 1.52
Cn1nccc1C(=O)NCCNCc1ccc(-c2ccc(-c3nc4cc(F)ccc4[nH]3)cc2)cc1 | 8.91
CN1CCN(c2ccnc3ccc(NC(=O)Nc4ccc(-c5ccccc5)cc4)cc23)CC1 | -0
Cc1cc(NCCCCCCCCNc2cc(C)nc3ccccc23)c2ccccc2n1 | 3.05
Cc1ccc2c(OCCN3CCC(Cc4ccc5c(c4)NC(=O)CO5)CC3)cc(F)cc2n1 | 2.86
CCCCCCNC(=N)c1ccc2[nH]c(-c3ccc(O)cc3)nc2c1 | 0.74
COc1ccccc1CN1CCC(CNC(=O)c2cc(-c3cccc(C(F)(F)F)c3)cs2)C1 (configuration not stated) | 12.5
O=C1Nc2cccc3c2C1(CCCCCN1CCC(c2c[nH]c4ccncc24)CC1)CCC3 (configuration not stated) | 3.6
COc1cccc(-c2ccc(C(=O)NC3CCN(Cc4ccc(N(C)C)cc4)CC3)s2)c1 | 7.02
CCOC(=O)N1CCN(CCCNc2c3ccc(Cl)cc3nc3ccc(OC)cc23)CC1 | 5.67
O=C(NCCCN1CCC(Cc2ccccc2)CC1)c1cc2c(Cl)nc3ccccc3c2s1 | 10.5

Structure (SMILES) | IFI [%]
COc1ccc(CN2CCC(C(=O)Nc3cccc(-c4cccc(Cl)c4)c3)CC2)cc1O | 13.9
CN1CCCC1CCCOC(=O)c1ccc(N)cc1 (configuration not stated) | -0
CN(c1ccc2c(c1)nc(NC(=O)C1(c3cc(F)ccc3F)CC1)n2C)c1ccnc(Nc2cccc(CS(C)(=O)=O)c2)n1 | 3.85
Cc1ccc2c(c1)c(C1CCN(C(=O)c3ccc([N+](=O)[O-])o3)CC1)cn2C | 4.35
Cc1cc(NC2CCN(CC3CCCCC3)CC2)nc(Nc2ccccc2Cl)n1 | 3.57
CCN(CC)CCCSc1ccc(-c2ccc(SCCCN(CC)CC)cc2)cc1 | 6.47
COc1ccc(OC)c(-c2ccc(O)c(CNCC(C)c3ccccc3)c2)c1 (configuration not stated) | 8.57
CN(C)CCNc1cc(-c2ccc3ccccc3c2)nc2ccccc12 | 3.91
COc1ccc2nccc([C@@H](O)CN3CCC(NCc4nc5c(F)cccc5[nH]4)CC3)c2c1 | 1.38
O=C(/C=C/c1cccc(C(F)(F)F)c1)NCCCCCN1CCC(c2c[nH]c3ccccc23)CC1 | 9.09
COc1ccc(OC)c(CC2c3ccc(Br)c(O)c3CCN2C)c1 (configuration not stated) | 2.17
COc1cccc(NC(=O)Nc2ccc(Nc3nc(C)cc(N(C)C)n3)cc2)c1 | 12
NC(Cc1cccc(I)c1)C(=O)NCC1CCCO1 (configuration not stated) | -0
O=C(Nc1cc(C(F)(F)F)cc(C(F)(F)F)c1)N1CCC(CCN2CCC(c3c[nH]c4ccccc34)CC2)CC1 | 3.6
O=C(NCC1CCC1)c1cnc(Nc2cccc(Cl)c2)nc1N1CCC1 | -0
CC(=O)Nc1ccc(S(=O)(=O)Nc2c(C)cc(Cc3cnc(N)nc3N)cc2C)cc1 | 1.46
COc1cc(-c2nc(-c3ccccc3)c(-c3ccccc3)[nH]2)ccc1OCCN(C)C | 3.65
COc1ccccc1CCNc1nc(C)cc(N[C@@H](CC(C)C)C(=O)NCc2cccs2)n1 | 10.3
NCCNS(=O)(=O)c1ccc(-c2ccnc3[nH]c(-c4ccncc4)cc23)cc1 | 3.13
Nc1cc(-c2ccc(Br)cc2O)nc2ccccc12 | 8.21
O=C(/C=C/c1ccc(Cl)c(Cl)c1)NCCCCCN1CCCC(CNC(=O)/C=C/c2ccccc2)C1 (configuration not stated) | 8.33
Oc1cccc(Nc2ccnc3cc(-c4ccncc4)ccc23)c1 | 4.41
COc1ccc(-c2ccc(NC(=O)c3cccc(Cl)c3)cc2)cc1CNC(C)C | 3.96

Structure (SMILES) | IFI [%]
Cn1cncc1CCN(Cc1ccc(-c2ccc(C(F)(F)F)cc2)cc1)C(=O)Cn1c(CCc2cccc(F)c2F)cc(=O)c2cccnc21 | 4.41
CC[C@H](C)CNC(=O)c1cncc(-c2cccc(CNC3Cc4ccccc4C3)c2)c1 | 7.58
Cc1nc2ccc(Nc3nccc(-c4c(-c5cccc(NC(=O)c6c(F)cccc6F)c5)nn5ccccc45)n3)cc2nc1C | 1.43
COc1ccc2[nH]ccc(=NN=Cc3ccccc3Cl)c2c1 | 5.15
CCN(CC)CCCC(C)Nc1c2ccc(Cl)cc2nc2ccc(OC)cc12 (configuration not stated) | 5.13
O=C(/C=C/c1ccc(C(F)(F)F)cc1)NCCCCCN1CCC(c2c[nH]c3ccccc23)CC1 | 7.86
c1ccc2[nH]c(-c3ccc(-c4ccc(CN5CCN(c6ccncc6)CC5)cc4)s3)nc2c1 | 3.28
Cc1cc(N2CCCCC2)nc2ccc(NC(=O)c3cncc(Br)c3)cc12 | 3
O=C(CCN(Cc1ccco1)c1nc(-c2ccc(F)cc2)nc2ccccc12)NC1CC1 | 2.38
O=C(/C=C/c1ccc(Cl)c(Cl)c1)NCCCCCN1CCCN(C(=O)Nc2cccc(F)c2)CC1 | 3.36
CN(C)Cc1ccc(-c2cc3c(Nc4ccc(OCc5cccc(F)c5)c(Cl)c4)ncnc3s2)[nH]1 | 6.47
CC(C)c1cc(Oc2c(I)cc(CCCc3ncc[nH]3)cc2I)ccc1O | 16.4
O=C(Nc1ccc(Cl)cc1)c1ccc(CN2CCCN(Cc3ccsc3)CC2)cc1 | 11.5
COc1cc(NC(=O)c2sc(-c3ccc(Cl)cc3)cc2Cl)ccc1OCCN1CCCC1 | 12
CN(C)C=Nc1ccc(OCCCCCCOc2ccc(N=CN(C)C)cc2)cc1 | 0.74
CCc1ccc(NC(=O)c2ccc(CN3CCCN(CCC(C)C)CC3)cc2)cc1 | 6.4
Cc1nnnn1-c1ccc(C(=O)N2CCC3(CC2)CN(Cc2ccc(Cl)c(Cl)c2)C(=O)O3)cc1 | 0.69
CCOc1cc(Cc2cnc(N)nc2N)cc(OC)c1OC | 2.17
N=C(N)c1ccc2[nH]c(SCc3ccccc3)nc2c1 | 0.94
CCCCC(O)c1cc(O)c2c(c1)OC(C)(C)CC2C1=CCN(Cc2ccc3ccccc3c2)CC1 (configuration not stated) | 10.9
CCc1c[nH]c2c(N(c3ccccc3)S(C)(=O)=O)cc(C(=O)N[C@@H](Cc3ccccc3)[C@H](O)CNCc3cccc(C(F)(F)F)c3)cc12 | 6.72
OC(CNc1ccnc(Nc2ccccc2)n1)c1cccc(C(F)(F)F)c1 (configuration not stated) | 12.2
O=C(Nc1ccc(Cl)cc1)c1ccc(CN2CCCN(Cc3cccc(Cl)c3)CC2)cc1 | 8.66

Structure (SMILES) | IFI [%]
Cn1c(N=C2NC3(c4ccccn4)NC(=Nc4nc5ccccc5n4C)NC3(c3ccccn3)N2)nc2ccccc21 (configuration not stated) | 3.6
Cc1ccc2[nH]c(Nc3ccc(Nc4nc5cc(C)ccc5[nH]4)c(C)c3)nc2c1 | 2.29
CNC(=O)COc1ccc(Nc2nnc(-c3ccc(C)c(S(=O)(=O)NCC4CCCO4)c3)c3ccccc23)cc1 (configuration not stated) | 1.34
NS(=O)(=O)c1cncc(-c2ccc3nccc(-c4cn[nH]c4)c3n2)c1 | 2.78
Cc1[nH]c(C)c(-c2ccc(OCc3ccccc3)cc2)c(=O)c1Br | -0
CS(=O)(=O)CCNCc1nc(-c2ccc3c(Nc4ccc(F)c(O)c4)ccnc3c2)cs1 | 3.73
Cc1nc2nc(N)nc(N)c2c(C)c1Cc1cccc(C(N)=O)c1 | 1.46
O=C(Cn1cnc2c(nnn2Cc2ccccc2F)c1=O)Nc1ccc2c(c1)OCCO2 | 0.88
Cc1cc(CN2CCC(N3CC(c4ccccc4)(c4ccccc4)OC3=O)C2)ccc1O (configuration not stated) | 7.14
COc1cccc(CNC(=O)NC2CCN(c3ccnc(Nc4ccc(F)cc4)n3)C2)c1 (configuration not stated) | 7.58
COc1cccc(C(=O)Nc2ccc(Nc3nc(C)cc(N(C)C)n3)cc2)c1 | 7.14
COc1ccc(CNCc2ccc(-c3ccc(-c4nc5ccccc5[nH]4)cc3)cc2)cc1 | 13
Cc1ccc2[nH]c(NC#N)nc2c1 | -0
COc1ccc2ccc(F)c(CC(=O)N3CCOC(CNCc4cccc(-c5ccsc5)n4)C3)c2n1 (configuration not stated) | 0
C[C@@H](CC1CCCCC1)NCc1cccc(NS(=O)(=O)c2ccc(O)c(-c3ccno3)c2)c1 | 5.56
O=[N+]([O-])c1ccc(-n2nc(Cc3ccccc3)n(Cc3cccc(F)c3)c2=S)c(C(F)(F)F)c1 | 2.86
Cc1ccc(C2(CN3CCC(NC(=O)c4cc[nH]n4)CC3)CCCCC2)cc1 | 6.25
O=C(/C=C/c1ccc(C(F)(F)F)cc1)NCCCCCN1CCN(C(=O)Nc2ccc(Cl)c(Cl)c2)CC1 | 13.7
O=c1cc(NCCCNCc2cc(F)cc(C(F)(F)F)c2)[nH]c2ccccc12 | 2.19
CN1CCN(c2cc3c(cc2Cl)CCN3C(=O)Nc2ccc(NC(=O)c3ccc(C(F)(F)F)cc3)cc2)CC1 | 5.71
O=C(NC1CCN(Cc2ccc(Cl)cc2)CC1)c1cn(-c2ccccc2)nc1-c1cccnc1 | 1.43
Oc1ccc(CNCC2CCN(CC3CCCCC3)CC2)cc1 | 1.38
Cc1cccc2nc(-c3ccc(-c4ccc(CNCc5cccc(N)c5)cc4)cc3)[nH]c12 | 8.65
